Data reported in the supplement of paper PMC6089552.
Values joined by “and” are separate entries in the source; they are usually repeats but may differ in a detail not shown here. Equal values may be shown once. About 300 (9.4%) of roughly 3,200 compounds showed activity. The list shows a part of the results, in another mix than the full data.

System: A673/TR/shEF
Assay: cell viability (LOESS-normalised, relative to median of negative controls) (log2 ratio); higher = more viable cells (less compound effect), active = hit call of the paper (over 3 MAD below the median)
Conditions: treatment time: 72 h
Summary of the method: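 Viability of A673/TR/shEF Ewing sarcoma cells was determined by CellTiter-Glo luminescence. The cells, at 1,500 per well in 384-well plates, were grown with or without doxycycline from 24 h before compound addition to switch on EWS-FLI1 shRNA knockdown, then exposed for three days to library compounds at two or more concentrations or to DMSO controls. Signals were LOESS-corrected plate by plate, normalised to the negative-control median and log2-transformed.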

[1] = 0.25 µM, library screen: screen1, EWS-FLI1 expression: high (no doxycycline)
[2] = 0.25 µM, library screen: screen1, EWS-FLI1 expression: low (doxycycline-induced shRNA knockdown)
[3] = 2.5 µM, library screen: screen1, EWS-FLI1 expression: high (no doxycycline)
[4] = 2.5 µM, library screen: screen1, EWS-FLI1 expression: low (doxycycline-induced shRNA knockdown)
[5] = 25 µM, library screen: screen1, EWS-FLI1 expression: high (no doxycycline)
[6] = 0.25 µM, library screen: screen2, EWS-FLI1 expression: high (no doxycycline)
[7] = 0.25 µM, library screen: screen2, EWS-FLI1 expression: low (doxycycline-induced shRNA knockdown)
[8] = 2.5 µM, library screen: screen2, EWS-FLI1 expression: high (no doxycycline)
[9] = 2.5 µM, library screen: screen2, EWS-FLI1 expression: low (doxycycline-induced shRNA knockdown)
[10] = 0.103 µM, library screen: screen3, EWS-FLI1 expression: high (no doxycycline)
[11] = 0.103 µM, library screen: screen3, EWS-FLI1 expression: low (doxycycline-induced shRNA knockdown)
[12] = 0.308 µM, library screen: screen3, EWS-FLI1 expression: high (no doxycycline)
[13] = 0.308 µM, library screen: screen3, EWS-FLI1 expression: low (doxycycline-induced shRNA knockdown)
[14] = 0.926 µM, library screen: screen3, EWS-FLI1 expression: high (no doxycycline)
[15] = 0.926 µM, library screen: screen3, EWS-FLI1 expression: low (doxycycline-induced shRNA knockdown)
[16] = 2.8 µM, library screen: screen3, EWS-FLI1 expression: high (no doxycycline)
[17] = 2.8 µM, library screen: screen3, EWS-FLI1 expression: low (doxycycline-induced shRNA knockdown)
[18] = 8.3 µM, library screen: screen3, EWS-FLI1 expression: high (no doxycycline)
[19] = 8.3 µM, library screen: screen3, EWS-FLI1 expression: low (doxycycline-induced shRNA knockdown)
[20] = 25 µM, library screen: screen3, EWS-FLI1 expression: high (no doxycycline)
[21] = 25 µM, library screen: screen3, EWS-FLI1 expression: low (doxycycline-induced shRNA knockdown)

Measured: cell viability (log2)

C=CC(=O)c1ccc2ccccc2c1
0.279: 0.025 µM, library screen: screen1, EWS-FLI1 expression: high (no doxycycline)
active: [3] -0.264 | [5] -0.287
inactive: 0.025 µM, library screen: screen1, EWS-FLI1 expression: low (doxycycline-induced shRNA knockdown) 0.0903 | [2] 0.00371 | [4] 0.198 | 25 µM, library screen: screen1, EWS-FLI1 expression: low (doxycycline-induced shRNA knockdown) -0.0301
0.286: [1]

NS(=O)(=O)c1cccc2c1c([N+](=O)[O-])cc1nc(O)c(O)nc12
inactive: [6] 0.201 | [7] 0.173 | [8] 0.0681 | [9] 0.042

COc1cc2c(cc1OC)C(=O)C(CC1CCN(Cc3ccccc3)CC1)C2 (stereo not drawn)
inactive: [10] -0.0816 | [11] 0.0748 | [1] 0.0675 | [2] 0.0517 | [12] 0.04 | [13] 0.0571 | [14] 0.0918 | [15] 0.0635 | [3] 0.0667 | [4] 0.0263 | [16] 0.0185 | [17] 0.0287 | [18] 0.0526 | [19] 0.0184 | [20] 0.136 | [21] 0.0264

CCCCC(CC)CN1CN(CC(CC)CCCC)CC(C)(N)C1 (stereo not drawn)
inactive: [1] 0.138 | [2] 0.149 | [3] 0.164 | [4] 0.252

NC(N)=NCc1cccc(I)c1
inactive: [6] 0.0563 | [7] 0.101 | [8] 0.134 | [9] 0.13

CO[C@@]1(NC(=O)Cc2cccs2)C(=O)N2C(C(=O)O)=C(COC(N)=O)CS[C@@H]21
inactive: [1] 0.0661 | [2] 0.0398 | [3] 0.0907 | [4] 0.113

CC(C)(C)c1ccccc1OCC(O)CN1CCCCC1 (stereo not drawn)
inactive: [1] 0.09 | [2] 0.0909 | [3] 0.176 | [4] 0.0864

CC1(COc2ccc3c(c2)ncn3-c2ccc3cccc(N4CCC(N)CC4)c3n2)COC1
active: [18] -0.22 | [20] -1.66 | [21] -0.632

C[C@]12CC[C@H]3C(=CCc4cc(O)ccc43)[C@@H]1CCC2=O
inactive: [1] -0.0145 | [2] 0.064 | [3] 0.0236 | [4] 0.138

O=C(NC1CCOCC1)c1ccc(-c2cc(-c3cn[nH]c3-c3ccccn3)ccn2)cc1
inactive: [10] 0.0414 | [11] -0.0267 | [12] 0.00678 | [13] 0.0198 | [14] -0.00971 | [15] 0.0278 | [16] 0.0251 | [17] 0.0026 | [18] 0.0359 | [19] 0.0142 | [20] -0.00807 | [21] 0.103

N=C(N)N
inactive: [1] 0.0673 | [2] 0.121 | [3] 0.0922 | [4] 0.00435

NC(N)=NCCNS(=O)(=O)c1cccc2cnccc12
active: [3] -0.325 | [5] -0.105

CNC(=O)[C@H]1O[C@@H](n2cnc3c(NCc4cccc(I)c4)ncnc32)[C@H](O)[C@@H]1O
inactive: [6] 0.0881 | [7] 0.143 | [8] 0.186 | [9] 0.124

Cc1c(C(N)=O)cc([N+](=O)[O-])cc1[N+](=O)[O-]
inactive: 0.025 µM, library screen: screen2, EWS-FLI1 expression: high (no doxycycline) 0.00602 | 0.025 µM, library screen: screen2, EWS-FLI1 expression: low (doxycycline-induced shRNA knockdown) 0.102 | [1] -0.0201 | [2] 0.0034 | [6] 0.0677 | [7] 0.0234 | [3] 0.0318 | [4] 0.0671 | [8] 0.116 | [9] 0.0743 | 25 µM, library screen: screen2, EWS-FLI1 expression: high (no doxycycline) 0.174 | 25 µM, library screen: screen2, EWS-FLI1 expression: low (doxycycline-induced shRNA knockdown) 0.0849

COc1ccc(C2C(=O)c3ccccc3C2=O)cc1
inactive: [1] 0.0954 | [2] -0.0583 | [3] 0.177 | [4] -0.135

Cc1cccc(C)c1NC(=O)C1CCCCN1C (stereo not drawn)
inactive: [1] 0.138 | [2] 0.0396 | [3] 0.1 | [4] 0.0981

CCC(=O)OC1[C@@H]2CC3=C4CC(=O)O[C@@H](c5ccoc5)[C@]4(C)CCC3[C@@](C)(C2=O)[C@@H](CC(=O)OC)C1(C)C (stereo partly drawn)
inactive: [1] 0.0873 | [2] -0.00184 | [3] 0.0649 | [4] 0.122

C=C/C(C)=C\C[C@@H]1[C@@]2(C)CCCC(C)(C)[C@@H]2CC[C@@]1(C)O
inactive: [1] 0.0522 | [2] 0.0309 | [3] 0.126 | [4] 0.0611

COC(=O)C[C@H]1C(C)(C)C(=O)[C@@H]2CC3=C(CC[C@]4(C)C3=CC(=O)O[C@H]4c3ccoc3)[C@@]1(C)C2=O
inactive: [1] 0.0103 | [2] 0.0637 | [3] 0.0609 | [4] 0.0818

O=C(Nc1ccccc1)c1ccccc1O
inactive: [1] 0.0823 | [2] 0.0564 | [3] 0.028 | [4] 0.0434

CS(=O)(=O)c1ccc(C2=C(c3ccccc3)C(=O)OC2)cc1
inactive: [1] 0.0474 | [2] -0.00424 | [3] 0.131 | [4] -0.0334

CCC/C=C1\OC(=O)C2=C1CCC=C2
inactive: [1] 0.162 | [2] 0.149 | [3] 0.218 | [4] 0.211

Cn1c(=O)c2[nH]cnc2n(C)c1=O
inactive: [10] 0.139 | [11] 0.0982 | [1] 0.0899 | [2] 0.0721 | [6] 0.105 and -0.0181 | [7] 0.0369 and 0.0406 | [12] 0.11 | [13] 0.14 | [14] 0.146 | [15] 0.0819 | [3] 0.127 | [4] 0.0623 | [8] 0.259 and 0.0738 | [9] 0.0969 and 0.00951 | [16] 0.155 | [17] 0.129 | [18] 0.11 | [19] 0.0762 | [20] 0.117 | [21] 0.0984

NC(N)=NCCC[C@H](N[C@H](CCC(=O)O)C(=O)O)C(=O)O
inactive: [1] 0.0848 | [2] 0.0238 | [3] 0.123 | [4] 0.0291

Cc1ccnc2c1NC(=O)c1cccnc1N2C1CC1
inactive: [10] 0.0685 | [11] 0.0211 | [12] 0.0056 | [13] 0.117 | [14] 0.0577 | [15] 0.0639 | [16] 0.00114 | [17] 0.0574 | [18] 0.0246 | [19] 0.0388 | [20] 0.0765 | [21] 0.0526
